Laboratory results reported in PubChem BioAssay AID485281 (National Center for Advancing Translational Sciences (NCATS), 2010).
Hit rate of the full screen: of about 350,000 compounds, about 260 (0.074%) were called active. Inconclusive means that the source gave no clear call. Such entries were picked first, then a sample of the others. Calls come from the whole dose curve; as a rule, active = well fitted inhibition curve with a large enough effect; inconclusive = small, poorly fitted or top-dose-only effect; inactive = no such curve, though single readings can be large or run the other way. Potencies of inconclusive entries are doubtful fits and often do not repeat.

Biological target: Ferritin light chain (Equus caballus) (UniProt P02791)
Assay: qHTS Assay for Identification of Novel General Anesthetics; note: nearly all actives have a fitted effect of over 20% in size
Conditions: apoferritin/1-aminoanthracene competitive binding, fluorescence; activity change, negative = displacement: at 77.5 µM (top of the series)
How it was run: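 Probe: 1-aminoanthracene (50% saturated, PBS). Protein: horse-spleen apoferritin, 10 uM. Incubation: 10 min, room temperature. Detection: 380 nm excitation, 535 nm emission. Analysis: normalized response, four-parameter Hill.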
% is set by controls: 0 for no effect and ±100 for the full control effect; potency is the fitted concentration of half-maximal effect; tags give direction and shape of the fitted curve.

UniProt P02791, sequence (P02791 whole entry, looked up): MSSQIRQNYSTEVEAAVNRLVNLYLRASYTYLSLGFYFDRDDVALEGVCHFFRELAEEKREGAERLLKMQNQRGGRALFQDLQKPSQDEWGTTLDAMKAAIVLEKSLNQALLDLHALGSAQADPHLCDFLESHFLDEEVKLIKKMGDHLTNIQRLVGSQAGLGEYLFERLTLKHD

SMILES	activity change, negative = displacement	Potency
N/C(=N\N=C\c1ccc2c(c1)OCO2)SC1CC(=O)N(c2ccc(C(=O)O)cc2)C1=O (stereo unspecified)	inactive: -3.89%	–
Cc1cccc(NC(=S)NC(=O)CCc2ccccc2)c1C	inactive: 6.71%	–
COc1ccc(N2CCN(C(=O)c3ccc4c(=O)n5c(nc4c3)CCCCC5)CC2)cc1	–	inconclusive: 17.8 µM [inhibitor, partial curve]
CCOc1ccc(C2C(=O)N(C3CCCCCC3)CC(=O)N2CCc2ccc(Cl)cc2)cc1OC (stereo unspecified)	inactive: 106%	–
COc1ccc(-c2cc(C(=O)N3CCCc4ccccc43)no2)cc1	–	inconclusive: 10 µM [inhibitor, partial curve]
COc1ccc(/C=C/C(=O)c2cc(F)ccc2OC(=O)c2ccc(OC)c(OC)c2)cc1OC	–	inconclusive: 14.1 µM [inhibitor, partial curve]
FC(F)(F)c1ccc(C2[C@H]3CN(CC4CCCCC4)[C@H](c4ccccc4)C34CC2(c2cccnc2)C4)cc1 (stereo partly specified)	–	inconclusive: 10 µM [inhibitor, partial curve]
O=C(CCc1nnc(CCCCc2ccccc2)o1)NCCCc1cccnc1	–	inconclusive: 25.1 µM [inhibitor, single point]
CC(C)(C)Nc1c(-c2cccs2)nc2ccccn12	–	inconclusive: 35.5 µM [inhibitor, single point]
CCc1cc2c3c(c(=O)oc2cc1OC)CCCC3	inactive: -13%	–
O=[N+]([O-])c1c(Nc2ccccc2O)cc(Cl)c2nonc12	–	inconclusive: 31.6 µM [inhibitor, partial curve]
Cc1ccccc1OCCNC(=O)c1ccccc1Sc1ccccc1C#N	inactive: -1.97%	–
Cc1cc(=O)n(CC(=O)NC(C)c2ccccc2)c2c1c(C)nn2C (stereo unspecified)	inactive: -1.16%	–
CCCOc1ccc(C(C)=O)cc1CSc1nc(O)cc(=O)[nH]1	–	inconclusive: 10 µM [inhibitor, full curve, poor fit]
Nc1ccc(S(=O)(=O)NC2(C(F)(F)F)NC(=O)N(c3cccc(Cl)c3)C2=O)cc1 (stereo unspecified)	inactive: -12.2%	–
Cc1ccc(NC(=O)c2ccc(-n3cccn3)c([N+](=O)[O-])c2)cc1C	–	inconclusive: 20 µM [inhibitor, partial curve]
COc1ccc(NS(=O)(=O)c2cc3c(cc2C)N(C)CCO3)c(OC)c1	inactive: -19.1%	–
O=C(COC(=O)c1cc([N+](=O)[O-])ccc1N1CCOCC1)NCc1ccc(Cl)cc1Cl	–	inconclusive: 15.8 µM [inhibitor, partial curve]
Cc1ccc(SCC(Cc2ccccc2)N2CCN(CCc3ccccc3)CCC2=O)cc1 (stereo unspecified)	inactive: 18%	–
Cc1noc(/C=C/c2ccco2)c1S(=O)(=O)N1CCC(C(=O)N2CCc3ccccc3C2)CC1	–	inconclusive: 22.4 µM [inhibitor, partial curve]
CC1(C)Cc2ccccc2-c2nc(-c3ccccc3)oc(=O)c21	–	inconclusive: 35.5 µM [inhibitor, partial curve]
CCOC(=O)c1c(C)oc2nc(C)nc(NCc3ccc(OC)cc3)c12	inactive: -5.2%	–
O=C(Cn1cc(C(F)(F)F)ccc1=O)N/N=C/c1ccc(Cl)cc1	–	inconclusive: 50.1 µM [inhibitor, single point]
Cc1cccc(C(=O)Nc2nnc(-c3ccc(C(C)(C)C)cc3)s2)c1	inactive: -8.01%	–

SMILES	activity change, negative = displacement	Potency
CC(C)Oc1ccc(NC(N)=O)cc1	–	inconclusive: 50.1 µM [inhibitor, single point]
CC(Oc1ccc2ccc(=O)oc2c1)C(=O)NC(Cc1c[nH]c2ccc(O)cc12)C(=O)O (stereo unspecified)	inactive: -5.84%	–
CCn1c(=O)cc(SCC(=O)N2CCN(c3ccccc3OC)CC2)c2ccccc21	–	inconclusive: 35.5 µM [inhibitor, partial curve]
O=C1CCCc2ccccc2N1Cc1ccc(Cl)cc1Cl	–	inconclusive: 28.2 µM [inhibitor, partial curve]
CCOC(=O)C(=CNNc1cccc(Cl)c1)C(=O)OCC	–	inconclusive: 56.2 µM [inhibitor, single point]
COc1ccc(CCNC(=O)Cn2nc(C)c3c(C)n(-c4ccc(C)cc4)nc3c2=O)c(OC)c1	–	inconclusive: 50.1 µM [inhibitor, single point]
O=C(CCN1C(=O)C2CCCCC2C1=O)Nc1nc(-c2ccc(F)c(F)c2)cs1 (stereo unspecified)	–	inconclusive: 31.6 µM [inhibitor, single point]
COc1ccc(C(=O)COC(=O)CCC(=O)c2cccs2)cc1	–	inconclusive: 25.1 µM [inhibitor, partial curve]
O=C(CNC(=O)c1cccc(F)c1)N/N=C/c1cccc([N+](=O)[O-])c1	–	inconclusive: 11.2 µM [inhibitor, partial curve]
Fc1ccc(Nc2c(-c3ccco3)nc3ccccn23)cc1	–	inactive
Cn1c(=O)c(=O)n(C)c2cc(S(=O)(=O)Nc3ccc(Cl)c(C(F)(F)F)c3)ccc21	–	inconclusive: 15.8 µM [inhibitor, partial curve]
C=CCn1c(Cc2c[nH]c3ccccc23)n[nH]c1=S	–	inconclusive: 15.8 µM [inhibitor, partial curve]
CCOC(=O)C1NN=C(C(=O)c2ccc(C)cc2)C1c1ccc(C)cc1 (stereo unspecified)	–	inconclusive: 17.8 µM [inhibitor, partial curve]
CCC(C)c1ccc(NC(=S)NCc2ccccn2)cc1 (stereo unspecified)	–	inconclusive: 31.6 µM [inhibitor, partial curve]
O=C(CCSc1nc2cc(Cl)ccc2o1)N1CCOCC1	inactive: 4.58%	–
COc1cccc(NC(=S)/C(=C(\[O-])c2ccc([N+](=O)[O-])cc2)[n+]2ccccc2)c1	–	inconclusive: 15.8 µM [inhibitor, partial curve]
Cc1sc2ncnc(N=Nc3c(O)[nH]c4ccccc34)c2c1C	inactive: -3.61%	–
Cc1ccc(NC(=O)Cn2cnc3sc(C(=O)NCc4ccco4)c(C)c3c2=O)cc1Cl	–	inconclusive: 22.4 µM [inhibitor, partial curve]
CC(C)(C)OC(=O)[C@H](Cc1ccccc1)NC(=O)c1nc[nH]c1C(=O)NCC(=O)OCc1ccccc1	–	inconclusive: 3.55 µM [inhibitor, partial curve]
COc1ccc(/C=C2\SC(=S)N(NC(=O)c3csc4c3CCCC4)C2=O)cc1	–	inconclusive: 4.47 µM [inhibitor, full curve]
Cc1ccc(C(=O)NCCOC23CC4CC(CC(C4)C2)C3)cc1	–	inconclusive: 22.4 µM [inhibitor, partial curve]
Cc1[nH]n2c(=O)c3c(nc2c1-c1ccccc1)CCC3	inactive: -0.581%	–
O=S(c1ccc2ccccc2c1)c1cnns1 (stereo unspecified)	–	inconclusive: 25.1 µM [inhibitor, single point]
Cc1nn(Cc2ccccc2)c(Cl)c1/C=C1\NC(=S)NC1=O	–	inconclusive: 39.8 µM [inhibitor, single point]

SMILES	activity change, negative = displacement	Potency
CCc1cccc(NC(=O)CS(=O)Cc2nc(-c3ccc(C)cc3)oc2C)c1 (stereo unspecified)	–	inconclusive: 25.1 µM [inhibitor, partial curve]
Cc1cccc(NC(=O)c2cc(-c3ccc(C)c(C)c3O)n[nH]2)c1	–	inconclusive: 15.8 µM [inhibitor, partial curve]
COc1ccc(/C=N/NC(=O)c2cc(C)n(-c3ccccc3)c2C)cc1OC	inactive: -8.47%	–
CCCCOc1ccc(NC(=O)CN2CCN(CC)CC2)cc1	–	inconclusive: 25.1 µM [inhibitor, partial curve]
Cc1ccc(OCC(=O)Nc2ccc(S(=O)(=O)N3CCOCC3)cc2)c(C)c1	–	inconclusive: 22.4 µM [inhibitor, partial curve]
BrC(=C\c1ccccc1)/C=N/Nc1ccc2nncn2n1	inactive: -12.5%	–
CCn1ncc(Br)c1C(=O)Nc1ccccc1OC	inactive: -14.4%	–
COc1ccccc1/C=C/C(=O)NCCC1=CCCCC1	–	inconclusive: 20 µM [inhibitor, partial curve]
O=C(Nc1cccc(NC(=O)c2ccc(-c3ccc(Br)cc3)o2)c1)c1ccccc1	inactive: -1.78%	–
O=C(Nc1cccnc1)c1ccc(S(=O)(=O)N2CCCCCC2)cc1	–	inconclusive: 25.1 µM [inhibitor, single point]
CCc1ccc(CNC(=O)c2ccc3nc(C4CCCCC4)oc3c2)nc1	–	inconclusive: 25.1 µM [inhibitor, single point]
Cc1ccc(/C(N)=N/OC(=O)Cc2cccc3ccccc23)cc1	inactive: -4.7%	–
COc1ccccc1OCC(=O)N1CCCCCCC1	–	inconclusive: 14.1 µM [inhibitor, partial curve]
Cc1cc(=O)oc2c3c(ccc12)OCN(Cc1ccc(Cl)cc1)C3	inactive: 545%	–
Cc1ccnc2c(N3C(=O)C4C5C=CC(C5)C4C3=O)cccc12 (stereo unspecified)	–	inconclusive: 20 µM [inhibitor, partial curve]
Cc1cccc(CNc2nc(-c3cccnc3)nc3ccccc23)c1	–	inconclusive: 14.1 µM [inhibitor, partial curve]
O=C1/C(=C\c2ccc(C(F)(F)F)cc2)CSc2sccc21	–	inconclusive: 39.8 µM [inhibitor, single point]
O=c1cc(-c2ccccc2Cl)oc2ccc([N+](=O)[O-])c(O)c12	–	inconclusive: 31.6 µM [inhibitor, partial curve]
CCC1CCCCN1C(=O)Cn1c(=O)n(CCCCCC(=O)NCc2ccccc2Cl)c(=O)c2sccc21 (stereo unspecified)	inactive: 4.13%	–
Cc1nnc(Sc2cc(NCCCO)c([N+](=O)[O-])c3nonc23)s1	inactive: -19.7%	–
Cc1ccc(-n2ncc(C#N)c2N)cc1	inactive: 7.96%	–
Cc1cc(C)cc(NC(=O)CN2C(=O)NC(C)(c3ccccc3)C2=O)c1 (stereo unspecified)	–	inconclusive: 31.6 µM [inhibitor, partial curve]
O=C(c1ccc(CNS(=O)(=O)c2ccc(Br)cc2)cc1)N1CCCCCC1	–	inconclusive: 22.4 µM [inhibitor, partial curve]
